# Data from PMC4336329 (PLoS ONE, 2015).
# In all, about 310,000 compounds went through this assay and about 2,200 (0.71%) showed an effect of 50% or more. Effects have a minus sign here. The list shows a part of the results.
# Biological target: human ether-à-go-go-related gene (hERG) potassium channel (human, UniProt Q12809)
# Experiment: primary screen, population patch clamp on CHO cells stably expressing hERG
# human ether-à-go-go-related gene (hERG) potassium channel, sequence (Q12809 whole entry, looked up): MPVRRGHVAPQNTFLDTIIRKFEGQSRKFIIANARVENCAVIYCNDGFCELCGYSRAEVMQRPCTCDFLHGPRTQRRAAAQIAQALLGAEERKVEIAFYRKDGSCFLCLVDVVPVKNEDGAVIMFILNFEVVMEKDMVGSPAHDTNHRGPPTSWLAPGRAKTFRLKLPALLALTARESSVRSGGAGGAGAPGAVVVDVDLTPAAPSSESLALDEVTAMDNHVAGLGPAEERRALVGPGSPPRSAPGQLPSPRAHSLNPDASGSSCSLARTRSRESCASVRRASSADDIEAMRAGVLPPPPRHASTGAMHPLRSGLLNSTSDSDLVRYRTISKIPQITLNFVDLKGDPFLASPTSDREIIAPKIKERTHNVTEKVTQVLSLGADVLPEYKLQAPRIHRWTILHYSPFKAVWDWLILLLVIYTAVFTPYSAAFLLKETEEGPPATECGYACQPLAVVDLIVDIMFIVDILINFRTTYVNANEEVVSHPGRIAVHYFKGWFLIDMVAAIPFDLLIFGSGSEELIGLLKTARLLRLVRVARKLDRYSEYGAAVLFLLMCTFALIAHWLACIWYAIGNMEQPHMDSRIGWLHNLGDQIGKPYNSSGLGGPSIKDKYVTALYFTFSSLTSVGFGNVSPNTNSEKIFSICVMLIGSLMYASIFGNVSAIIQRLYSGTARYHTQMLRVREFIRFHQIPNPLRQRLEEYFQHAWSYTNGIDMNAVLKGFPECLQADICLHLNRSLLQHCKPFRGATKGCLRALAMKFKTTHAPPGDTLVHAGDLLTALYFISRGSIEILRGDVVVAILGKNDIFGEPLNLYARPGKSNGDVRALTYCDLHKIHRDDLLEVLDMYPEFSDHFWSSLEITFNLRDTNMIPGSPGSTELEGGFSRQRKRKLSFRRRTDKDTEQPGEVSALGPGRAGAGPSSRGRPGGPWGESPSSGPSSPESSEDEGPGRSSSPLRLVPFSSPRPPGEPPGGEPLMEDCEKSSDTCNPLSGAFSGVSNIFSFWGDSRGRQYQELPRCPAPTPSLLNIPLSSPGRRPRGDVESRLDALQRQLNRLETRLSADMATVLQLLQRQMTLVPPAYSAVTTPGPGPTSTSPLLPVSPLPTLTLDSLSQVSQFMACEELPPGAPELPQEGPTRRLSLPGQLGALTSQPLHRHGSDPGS
row,SMILES,"hERG current change (%, negative = inhibition) at 1uM [%]"
1,CCCCC1(C)Cc2ccccc2C(=S)N1 (centres unmarked),13.9
2,COc1cccc(NC(=S)N(CCc2c(C)[nH]c3ccc(C)cc23)Cc2cccs2)c1,2.53
3,CCC(CO)(C(=O)OC1C[N+]2(C)CCC1CC2)c1ccccc1.[I-] (centres unmarked),13.9
4,NS(=O)(=O)c1cccnc1Nc1ccc(Cl)c(Cl)c1,-2.58
5,O=C(c1cnsn1)N1CCCC(Nc2ccc(F)c(F)c2)C1 (centres unmarked),8.17
6,CC1CCN(C(=O)COc2ccccc2F)CC1,15.8
7,COc1ccc(-c2nn(C)c(=O)[nH]2)cc1,17.1
8,Cc1cc(C(=O)COC(=O)c2ccc(O)cc2)c(C)n1CC(F)(F)F,7.78
9,O=C(CSCc1ccc(Br)cc1)N1CCOCC1,5.03
10,Cc1c(C(=O)C(=O)N2CCN(C)CC2)c2ccccc2n1C,10.9
11,O=C(NCc1nnc(SCC(=O)N2CCOCC2)o1)c1c(F)cccc1F,6.78
12,CCn1c(SCc2ccc([N+](=O)[O-])cc2)nnc1C(C)NC(=O)c1ccccc1Br (centres unmarked),3.3
13,COc1ccccc1C1C=C(c2ccc(Cl)cc2)Nc2nc(N3C(=O)CCC3=O)nn21 (centres unmarked),-1.99
14,CCOc1ccc(N(CC(=O)NC(C)(C)C)C(=O)c2ccco2)cc1,0.399
15,CS(=O)(=O)N(CC(=O)Nc1ccccc1C(=O)N1CCOCC1)c1ccccc1,19
16,c1ccc(C2CN3CCC2CC3)cc1 (centres unmarked),7.2
17,CCN(CC)S(=O)(=O)c1ccc(N2CCN(S(=O)(=O)c3ccc4c(c3)OCCO4)CC2)nc1,7.28
18,COc1ccc(C(=O)NC(=S)N2CCOCC2)cc1Br,-2.56
19,O=C(c1ccc(-n2nc(C(F)(F)F)c3c2CCCC3)cc1)N1CCOCC1,6.51
20,Cc1ccc(N(C(=O)c2csnn2)C(C(=O)NC2CCCCC2)c2ccncc2)cc1 (centres unmarked),8.32
21,CCc1ccccc1NC(=O)c1cccc(NC(=O)/C=C/c2ccco2)c1,3.1
22,COc1ccc(OCCSc2ccc(S(=O)(=O)N3CCCC3)cn2)cc1,16.6
23,COc1ccc(-n2nc3cc(C)c(NC(C)=O)cc3n2)cc1,9.55

row,SMILES,"hERG current change (%, negative = inhibition) at 1uM [%]"
1,N#Cc1c(-c2ccco2)c2c([nH]c1=S)CCCC2,12.8
2,Cc1ccc(-c2cc(C(F)F)n3ncc(C(=O)N4CCN5CCCC5C4)c3n2)cc1 (centres unmarked),-21.6
3,O=C(C(NS(=O)(=O)c1cccc2nsnc12)c1ccccc1)N1CCN(c2ccccn2)CC1 (centres unmarked),-15
4,CCOC(=O)N1CCN(Cc2cc(=O)oc3ccc(Cl)cc23)CC1,1.74
5,Cc1nn(-c2cc(C(F)(F)F)ccn2)c(=O)o1,15
6,O=C1S/C(=C\c2ccc(Cl)cc2)C(=O)N1CCn1cnnn1,-4.31
7,COc1ccc(Nc2cc(=O)n(-c3ccccc3)c3c2c(=O)n(C)c(=O)n3C)cc1,15.9
8,Cc1ccc(-n2nnnc2SCc2ccccn2)cc1C,12.6
9,CCCNC(=O)N1[C@H]2CC[C@@H]1C(C(=O)OC)=C(c1ccc3ccccc3c1)C2,4.04
10,Cc1cc2c(cc1C)CSC(c1ccccc1OC(=O)C(C)C)SC2,11.5
11,CCO[C@H]1OC(C(=O)N2CCOCC2)=C[C@@H](c2cn(C(C)=O)c3ccccc23)[C@@H]1CCCO,4.63
12,O=C(C1CCN(S(=O)(=O)c2cccc3nsnc23)CC1)N1CCN(c2ccccc2F)CC1,8.77
13,CCN1C(=O)N[C@@H](c2cccc(F)c2)C(C(C)=O)=C1C,21.4
14,CC1CN(S(=O)(=O)c2cccc(C(=O)Nc3cc(Cl)ccc3N3CCOCC3)c2)CC(C)O1 (centres unmarked),-6.88
15,O=C(COC(=O)CC1CC2CCC1C2)NC(=O)NCc1ccco1 (centres unmarked),10.5
16,CCN(CC)c1nc(Oc2ccc(C(=O)OC)cc2)nc(N2CCOCC2)n1,-4.31
17,COc1cccc(OC)c1C(=O)Nc1ccc(N2CCN(C(=O)c3cccs3)CC2)cc1,10.7
18,O=C(O)COc1ccc(NC(=O)c2cccs2)cc1,21.7
19,Cc1cc(N2CCOCC2)nc(N)n1,16.1
20,COc1ccc(Cl)cc1NC(=O)C(=O)N/N=C/c1cc(C)n(-c2ccc(C)cc2)c1C,3.26
21,CSc1nsc(/C=C/Nc2cccc(Cl)c2)c1C#N,13.2
22,O=C(N/N=C1\NC(=O)C(CO)(CO)S1)c1ccccc1,8.23
23,O=C(NC(NC1CCS(=O)(=O)C1)C(=O)c1cccs1)c1ccccc1 (centres unmarked),6.57

row,SMILES,"hERG current change (%, negative = inhibition) at 1uM [%]"
1,CCCCn1c(SCC(=O)NC2CCS(=O)(=O)C2)nnc1-c1ccc(OC)cc1 (centres unmarked),6.62
2,CC(C)(C)c1ccc(C(=O)C2CCCN(C(=O)C3CCOCC3)C2)cc1 (centres unmarked),5.39
3,CCOC(=O)C1CCCN(C(=O)c2cccc(NC(=O)C(CC)CC)c2)C1 (centres unmarked),12.7
4,CC(=O)Nc1ccc(S(=O)(=O)Nc2c(C)nn(-c3ccccc3)c2C)cc1,2.79
5,Cc1ccc2cc(S(=O)(=O)NCCCN3CCOCC3)ccc2c1,7.94
6,Cc1cc(NC(=O)CSc2nnc(-c3ccco3)n2Cc2ccccc2)no1,-1.97
7,O=C(NCC1COc2ccccc2O1)c1cccc(S(=O)(=O)N2CCCCC2)c1 (centres unmarked),-2.43
8,CC(CN1CCCCC1)C(=O)NNC(=O)C12CC3CC(CC(C3)C1)C2 (centres unmarked),6.9
9,CCOC(=O)N1CCN(C(=O)c2cc3c(=O)[nH]c4ccccc4c3s2)CC1,9.74
10,O=C(N/N=C/c1ccc(Sc2nc3ccccc3[nH]2)o1)c1ccncc1,10.1
11,CCOC(=O)c1cn(CC#N)c2cc(F)c(F)cc2c1=O,12.7
12,CCCN(CC1CC1)C(=O)CSc1nnc(-c2ccco2)n1N,-9.85
13,Cc1cc(C)c(NC(=O)C2CC(=O)N(Cc3ccccc3)C2)c(C)c1 (centres unmarked),18.4
14,CC(=O)Nc1ccc(S(=O)(=O)NCCC(=O)Nc2cc(C)ccn2)cc1,7.82
15,COc1cc2c3c(c1)/C(=C1/SC(NC(C)=O)=NC1=O)C(=O)N3C(C)(C)C=C2C,-1.44
16,Cc1[nH]c2ccccc2c1C(=O)CSc1ccccn1,-5.55
17,CCN(CC(=O)Nc1c(F)cccc1F)C(=O)CCCc1cccs1,2.48
18,COc1ccc(CNC(=O)c2ccc(=O)oc2)cc1OC,13.3
19,CCc1ccc(C(=O)NNc2cc(Cl)cc(Cl)c2)cc1,9.61
20,CCCSc1nc(=S)n(Cc2ccccc2)c(C)c1C(C)=O,1.92
21,Nc1nc(-c2ccc([N+](=O)[O-])cc2)c(C(=O)Nc2ccc(Cl)cc2)s1,13.1
22,COc1cccc(CN2CCNC(=O)C2CC(=O)N(C)C2CCOCC2)c1OC (centres unmarked),13.7
23,CSc1cccc(NC(=O)CN(c2ccc(C)cc2C)S(C)(=O)=O)c1,0.783

row,SMILES,"hERG current change (%, negative = inhibition) at 1uM [%]"
1,Cc1ccc2[nH]c3nc(SCC#N)nnc3c2c1,12.1
2,O=C(Cn1nc(C(=O)O)c2ccccc2c1=O)Nc1ccc(F)cc1F,16
3,COc1ccc(N2CC(NS(=O)(=O)c3ccc4ccccc4c3)CC2=O)cc1 (centres unmarked),15.4
4,Nc1ccc2nc3c(=O)n(C4CCCCC4)c(=O)[nH]c3nc2c1,7.72
5,O=c1[nH]n2cc(-n3cc([N+](=O)[O-])cn3)cnc2c1Br,12
6,c1ccc(C2CCCN(Cc3nc(CC4CC4)no3)CC2)cc1 (centres unmarked),10.8
7,CC(C)c1ccc(CNCc2ccccc2)cc1.Cl,-0.563
8,Cc1ccc(/C=C2\Oc3cc(OCC(=O)NN)ccc3C2=O)o1,12.2
9,COc1ccc(/C=N/OCC(=O)N(Cc2ccc(OC)cc2)c2ccccc2C(=O)O)cc1,5.39
10,O=S(=O)(Nc1nc2ccccc2nc1Cl)c1ccc2c(c1)OCCO2,8.99
11,Cc1ccc(NC(=O)c2ccco2)c(NC(=O)COc2ccccc2)c1,2.3
12,COc1cccc(C2C(C(N)=O)=C(C)Nc3nc(-c4cccc(Cl)c4)nn32)c1 (centres unmarked),8.64
13,CSc1ccccc1C(=O)C1CCCN(Cc2ccn[nH]2)C1 (centres unmarked),3.79
14,Cc1cc(C)cc(OCC(=O)Nc2ccccc2N2CCCCC2)c1,8.81
15,O=C(c1cccc(Cl)c1)N1CCC(=O)N(C(COCc2ccccc2)Cc2ccccc2)CC1 (centres unmarked),11.6
16,Cc1c(C(=O)Oc2ccc(-c3cnc4ccccc4n3)cc2)cccc1[N+](=O)[O-],12.9
17,COC(=O)C1=C(O)C(C(=O)OC)C(c2ccc(C)cc2)C(C#N)(C#N)C1c1ccc(C)cc1 (centres unmarked),6.75
18,Cc1nn(Cc2ccc(Cl)cc2Cl)c(Cl)c1/C=N/NC(=O)CNc1cccc(C(F)(F)F)c1,8.09
19,CCC(=O)Nc1ccc(C(=O)NNC(=O)C2CCCCC2)cc1,7.91
20,CCN(CCO)Cc1csc2ccc(Cl)cc12.Cl,5.63
